Measured values as given in PubChem BioAssay AID485344 (National Center for Advancing Translational Sciences (NCATS), 2010).
About 6,900 (2%) of roughly 340,000 compounds were called active. Rule as the data show it: active = inhibition above about 30%; inactive = below that, where a call was filed. This is a selection; strong and weak results do not stand in their true shares. Entries without a call were filed so in the source.

Each compound was assayed against D(2) dopamine receptor (Homo sapiens) (UniProt P14416) (assay: HTS Assay for Allosteric Antagonists of the Human D2 Dopamine Receptor: Primary Screen for Antagonists). Conditions: HEK293 TREx D2 cells, calcium flux, dopamine EC80; at 10 µM; stronger effect = higher value.
Sequence of UniProt P14416 (P14416 whole entry, looked up): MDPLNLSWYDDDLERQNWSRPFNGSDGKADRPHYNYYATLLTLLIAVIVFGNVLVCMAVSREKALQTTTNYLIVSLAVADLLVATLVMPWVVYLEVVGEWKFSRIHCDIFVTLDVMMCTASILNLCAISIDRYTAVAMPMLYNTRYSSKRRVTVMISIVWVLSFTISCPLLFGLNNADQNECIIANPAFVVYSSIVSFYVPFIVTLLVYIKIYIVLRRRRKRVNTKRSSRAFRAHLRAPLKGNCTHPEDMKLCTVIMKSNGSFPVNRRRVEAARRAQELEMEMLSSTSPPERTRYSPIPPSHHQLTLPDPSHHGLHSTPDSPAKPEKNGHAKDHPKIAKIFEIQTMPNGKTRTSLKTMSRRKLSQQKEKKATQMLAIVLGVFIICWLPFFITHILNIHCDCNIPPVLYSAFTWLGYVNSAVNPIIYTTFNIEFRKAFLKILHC
Procedure, shortened: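 HEK293 T-REx D2 cells, tet-induced, calcium dye no-wash. Cpd pintool add, 180 s kinetic, then EC80 DA, 180 s kinetic. Ca flux read.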
Also: 0% is about no effect.

SMILES | inhibition
COc1cc(C(=O)Nc2cc3c(cc2C)n(C)c(=O)c(=O)n3C)cc(OC)c1OC | -1.79%
CCC(=O)N1CCc2cc(S(=O)(=O)NC(Cc3ccccc3)C(=O)Nc3ccc(C)cc3)ccc21 (configuration not stated) | 1.09%
Cc1ccc(NC(=O)c2sc3nc(-c4cc5ccccc5oc4=O)[nH]c(=O)c3c2C)c(C)c1 | 8.99%
O=C(CN1CCCC1)Nc1cc(C(F)(F)F)ccc1Cl | active: 81.9%
CC(C)(C)c1nn(-c2ccccc2)c2nc(Cl)c(C=O)cc12 | active: 32.1%
CCOc1ccc(C(=O)Nc2cccc(OCc3cc(=O)n4ccccc4n3)c2)cc1 | -7.84%
O=S(=O)(Nc1cccc(-c2ccc(N3CCCCCC3)nn2)c1)c1ccc(F)cc1 | -7.2%
CCOC(=O)c1[nH]c(C)c(CCC(=O)Nc2ccc(C(C)=O)cc2)c1C | -23.6%
Cc1ccccc1NS(=O)(=O)c1nnc(NC(=O)c2ccc(Cl)cc2)s1 | -7.96%
CCOc1cccc(CNCCNC(=O)c2nonc2N)c1 | 20.7%
O=C1C(c2cccc(Br)c2)N(CCc2ccccc2)C(=O)CN1C1CCCCC1 (configuration not stated) | 5.86%
Cc1cccc(CNS(=O)(=O)c2csc(C(N)=O)c2)c1 | 4.4%
COc1ccc(C(=O)Oc2c(Sc3ccc(Cl)cc3)c(C)nn2C(C)(C)C)cc1OC | 1.46%
COc1ccc(NC(=O)CCCn2c(=O)c3cccn3c3ccccc32)c(OC)c1 | 28.1%
O=C(NCCc1csc(-c2ccc(C(F)(F)F)cc2)n1)C(=O)Nc1cc(F)ccc1F | -15.3%
COc1ccc(Cn2c(=O)[nH]c3cc(C(=O)NC4CCN(Cc5ccccc5)CC4)ccc32)cc1 | active: 75.5%
O=C(Cn1c(=O)c2ccccc2n(CC(=O)Nc2ccc(Cl)cc2)c1=O)NCCc1ccccc1 | -14%
CCOC(=O)c1c(C)[nH]c(CCC(=O)NCCCN2CCN(c3cc(Cl)ccc3C)CC2)c1C | 21.8%
CCCCN(C)CCNC(=O)C1CCCN(S(=O)(=O)c2ccc3c(c2)oc(=O)n3C)C1 (configuration not stated) | -15.7%
Cc1cc(-c2ccc(C)c(S(=O)(=O)Nc3ccccc3C(F)(F)F)c2)on1 | 3.21%
COc1ccc(C(=O)N(Cc2ccc(N(C)C)cc2)Cc2ccco2)cc1Cl | 2.54%
Cc1ccc2c(CC(=O)NCc3ccccc3)coc2c1C | 0.367%
Cc1ccc(C)n1-c1c(C(=O)NCC(C)c2ccccc2)sc2ncccc12 (configuration not stated) | -4.67%
O=c1c2sc3ccccc3c2n(Cc2ccccc2Cl)c(=O)n1Cc1ccccc1 | -9.18%
COc1ccc(CNC(=O)Cn2c(=O)oc3cc(S(=O)(=O)N4CCC(C)CC4)ccc32)cc1 | -10.4%

SMILES | inhibition
Cc1ccc(Cl)cc1-n1c(=O)c2sc3ccccc3c2n(CC(=O)NC2CCCCC2)c1=O | 15.1%
Cc1cccc(C)c1NC(=O)c1nc(S(C)(=O)=O)ncc1N(Cc1ccc(F)cc1)Cc1ccco1 | 13%
COc1cccc(CNC(=O)CN2C(=O)CSc3c2c(C)nn3-c2ccccc2)c1OC | 15.5%
CCOC(=O)c1cnc2c(C)cc(C)cc2c1NCCc1ccc(OC)c(OC)c1 | -5.95%
Cc1cc(C)c(C#N)c(SCc2ccccc2C)n1 | active: 34%
CCc1ccc(NC(=O)c2ccc(F)c(S(=O)(=O)NC3CCCCCC3)c2)cc1 | -7.68%
CC(=O)c1c(C)[nH]c(C(=O)OCCCCN2C(=O)c3ccccc3C2=O)c1C | active: 47.7%
Cc1c(Cl)cccc1NC(=O)CN1C(=O)COc2ccc(S(=O)(=O)N3CCCCCC3)cc21 | -8.33%
CCOc1ccccc1NC(=O)c1sc2nc(C)cc(C)c2c1N | -4.84%
Cc1coc2c(C)c3oc(=O)c(CC(=O)NCc4ccccc4)c(C)c3cc12 | 5.84%
COc1ccc(Br)cc1/C=C/C(=O)Nc1ccc(C)cc1 | active: 73.6%
CN1CCN(C(=O)c2ccc3c(c2)N(Cc2cccc(Cl)c2)C(=O)c2ccccc2S3(=O)=O)CC1 | 4.61%
O=C(Nc1ccc2nc(SCCOc3ccccc3)sc2c1)c1cccs1 | -2.48%
COc1ccccc1CNC(=O)C1CCN(S(=O)(=O)c2c(C)noc2/C=C/c2c(C)cc(C)cc2C)CC1 | 18.6%
O=C(Nc1ccccc1F)c1nc(SCc2ccc(F)cc2)ncc1Cl | -2.86%
CCCOc1ccccc1C(=O)N1CCCCC1CCN1CCOCC1 (configuration not stated) | 5.4%
CCN(C(=O)Cn1ncc2c(=O)oc3ccc(C)cc3c21)c1cc(OC)ccc1OC | 8.76%
Cc1cc(C(F)F)n2nc(C(=O)Nc3cc(Cl)ccc3C)nc2n1 | 7.61%
CCOC(=O)C1CCCN(S(=O)(=O)c2ccc(N3CCCCS3(=O)=O)cc2)C1 (configuration not stated) | -4.02%
CC1CCc2noc(NC(=O)c3ccccc3[N+](=O)[O-])c2C1 (configuration not stated) | 8.78%
CCc1nnc(NC(=O)CSc2nnc(CNc3ccc(Cl)cc3)o2)s1 | active: 49.9%
Cc1ccc(-n2nnc(-c3nsc(NC(=O)c4ccccc4)n3)c2C)cc1 | -5.97%
CCc1cccc(C)c1NS(=O)(=O)c1cc(-c2cc(C)no2)ccc1C | 3.02%
CCOc1ccc(OCC(=O)NCCS(=O)(=O)N2CCN(c3ccc(F)cc3)CC2)cc1 | -10.5%
Cc1ccc(-n2nc3ccc(NC(=O)c4oc5ccc(C)cc5c4C)cc3n2)cc1 | 19.3%

SMILES | inhibition
O=C(COc1ccc(/C=N/NC(=O)c2ccncc2)cc1)Nc1ccc([N+](=O)[O-])cc1 | active: 42.4%
O=C(CCC1CCCC1)N1CCc2c([nH]c3ccccc23)C1c1ccc(Cl)cc1 (configuration not stated) | 13.2%
COc1cccc(NC(=O)CSc2nnc(COc3ccc(Cl)cc3)o2)c1 | 1.38%
Cc1nnc2c(N3CCN(c4ccccc4F)CC3)nc3ccccc3n12 | 6.22%
COc1ccc(NC(=O)NCCc2c(C)nn(C)c2C)c(OC)c1 | -0.393%
CCOC(=O)c1cc(-c2ccc(C)cc2)n(CCC(=O)Nc2nc3c(C)cccc3s2)c1C | 1.67%
Cc1cc(-n2c(SCC(=O)NCc3ccccc3)nc3ccsc3c2=O)ccc1Cl | 19.9%
COc1ccc(-c2ccc(-c3noc(-c4ccccc4)n3)c(OC)n2)cc1 | active: 31.3%
Cc1ccc2c(c1)c(=O)c1ccccc1n2CCCC(=O)Nc1ccc(C)c(F)c1 | -2.22%
COc1cccc(Cn2c(=O)n(CC3CCC(C(=O)N4CCCCC4)CC3)c(=O)c3sccc32)c1 (configuration not stated) | 2.44%
CCCCn1c(SCC(=O)Nc2cccc(OC)c2)nc2c(sc3ccccc32)c1=O | -19.2%
COc1ccccc1N1CCN(C(=O)C2CCN(S(=O)(=O)c3c(C)noc3/C=C/c3ccc(C)cc3)CC2)CC1 | -17.1%
Cc1cccc(Cc2cnc(NC(=O)C3Cc4ccc(C)cc4C(=O)O3)s2)c1 (configuration not stated) | 13.2%
CCOc1ccc(CCNC(=O)c2sc3nc4n(c(=O)c3c2C)CCC4)cc1OCC | active: 30.2%
CCOC(=O)N1CCN(Cc2nc3cc(NC(C)=O)ccc3n2C(C)C)CC1 | -5.13%
CC(C)NC(=O)CCn1c(SCc2c(F)cccc2Cl)nc2c(sc3ccccc32)c1=O | -12.7%
COc1cccc(CCNC(=O)Cn2c(-c3cccs3)cc3ccccc32)c1 | 10%
Cc1cc(C)c(-c2cc(C(F)(F)F)no2)c(=O)[nH]1 | active: 32.3%
COc1ccc(NC(=O)CN2C(=O)C(c3ccc(C(C)(C)C)cc3)=NC2(C)C)cc1Cl | -11.8%
Cc1ccc(C)c(N2CCN(C(=O)Nc3cn(CC(C)C)c(=O)c4ccccc34)CC2)c1 | -0.227%
CCN(CC)CCn1c(NCc2ccc(OC)cc2)nc2ccccc21 | active: 74.7%
CCCCCC(=O)N1c2ccccc2C(C)(c2ccccc2)CC1(C)C (configuration not stated) | -20.8%
O=C(c1ccccc1Br)N(Cc1ccco1)C1CCS(=O)(=O)C1 (configuration not stated) | -2.87%
CC(C)(C)C(=O)NC(=S)NNC(=O)c1sc2ccccc2c1Cl | active: 56.6%
O=C(c1ccc2c(c1)N(Cc1ccccc1)C(=O)c1ccccc1S2(=O)=O)N1CCCC1 | -20.3%

SMILES | inhibition
CCC(Sc1nc2c(sc3ccccc32)c(=O)n1CCc1ccccc1)C(=O)N(CC)CC (configuration not stated) | 10.1%
Cc1ccc(C)c(NC(=O)CN2C(=O)c3cccc4cccc2c34)c1 | 0.111%
CCOC(=O)c1ccccc1NC(=O)NC(C)c1c(-n2cccc2)sc(C)c1C (configuration not stated) | 5.26%
Cc1cccc(Cn2ccn(Cc3ccc(Cl)cc3)c(=O)c2=O)c1 | -18.1%
O=c1c2ccccc2n2c(-c3ccccc3O)nnc2n1Cc1ccc(F)cc1 | -2.79%
CCOC(=O)C1=NN(c2ccccc2)C(=O)/C1=C\c1ccc(N(C)C)cc1 | active: 31.7%
O=C(CSc1nc(-c2cccc(Cl)c2)nc2cc(=O)[nH]n12)Nc1ccccc1 | -3.73%
CCN(CC)C(=O)c1sc(NC(=O)c2nc3ncccn3n2)c(C(=O)OC)c1C | 0.386%
CC(C(=O)NCc1ccccc1Cl)n1ccc2cc(S(=O)(=O)N3CCCCC3)ccc21 (configuration not stated) | 0.704%
CC(=O)c1ccc(N2CCN(c3ccc(NC(=O)c4cccs4)cc3C(=O)O)CC2)cc1 | 16.6%
CC(NC(=O)Cn1cc2c(n1)CCCCC2)c1ccccc1 (configuration not stated) | active: 35.3%
Cc1ccc(-n2ncc(C(=O)NCCCN3CCCCC3)c2C2CCN(C(=O)OC(C)(C)C)CC2)c(C)c1 | -7.46%
Cn1c(=O)[nH]c(=O)c2c1nc(N1CCCCCC1)n2CCN1CCCCCC1 | active: 39.9%
Cc1ccc(NC(=O)CSc2nnc3nc(C)cc(C)n23)cc1 | 3.88%
CCc1cccc(C)c1NC(=O)CCCn1c(=O)c2cccn2c2cccnc21 | -0.717%
Cc1ccccc1-c1noc(C23CC4CC(CC(C4)C2)C3)n1 | active: 75.2%
Oc1ccc(Nc2nc3ccccc3n3cnnc23)cc1 | 4.92%
CCOCCCNC(=O)CN1C(=O)COc2ccc(S(=O)(=O)N3CCCCCC3)cc21 | 2.77%
CCOC(=O)c1cnc2c(C)cc(C)cc2c1Nc1cccc(C(=O)O)c1 | 1.62%
Cc1ccc(C2c3c(-c4cc(C)ccc4O)n[nH]c3C(=O)N2Cc2ccco2)cc1 (configuration not stated) | 3.88%
COc1ccccc1N1CCN(CC(O)COc2ccc3c(C)cc(=O)oc3c2)CC1 (configuration not stated) | active: 72.1%
O=C(Nc1cccc2cccnc12)c1ccccc1[N+](=O)[O-] | 14.7%
